Data from PMC6212790.
The list shows a part of the results. At the low end of the ranking the order means little.
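Also: rank score from −0.5 (least bound) to 0.5 (best bound).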

The sequences below were run against T1, GST-Rok-C97-191 (UniProt O34857) (assay: protein binding microarray). Settings: Rok is a gene silencer of Bacillus subtilis; high values mean tight binding; most listed sequences are background and not binding sites; double strand, one strand shown.
T1 sequence: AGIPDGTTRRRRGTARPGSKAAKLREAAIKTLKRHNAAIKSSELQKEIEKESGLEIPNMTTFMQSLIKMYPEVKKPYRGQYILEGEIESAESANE
In the case of ATGCCACG, the binding signal is reported as -0.119 E-score. With CATCAGAC the binding signal was -0.171 E-score. For AATTAATA, the binding signal was 0.305 E-score. With AATACTTG the binding signal was 0.0788 E-score. For AGAATGTC, the binding signal was -0.0787 E-score. In the case of ACTTCTTC, the binding signal is reported as -0.0743 E-score. For CGCTCGTA, the binding signal was 0.132 E-score. AGAATGGG gave a binding signal of 0.0832 E-score. CGATAACG gave a binding signal of 0.191 E-score. CGACTATA was tested, and the binding signal was 0.122 E-score. CGACATAC showed a binding signal of 0.0958 E-score. Work on ATGCGGTC yielded a binding signal of -0.24 E-score. In the case of GCGGCGCC, the binding signal is reported as -0.329 E-score. In the case of GGGATACC, the binding signal is reported as 0.0184 E-score. CAGCGTGG was tested, and the binding signal was -0.207 E-score. With CCCGTAGC the binding signal was 0.02 E-score. Work on CTCCTACA yielded a binding signal of 0.0222 E-score. ACAACCGT gave a binding signal of 0.165 E-score. For CCGGCACG, the binding signal was -0.0932 E-score. Work on GATCAGAA yielded a binding signal of 0.0829 E-score. ACAAAAGG showed a binding signal of -0.134 E-score. With AGAAATAG the binding signal was 0.326 E-score. CATCAAGC was tested, and the binding signal was -0.279 E-score. With CGTATACG the binding signal was 0.0133 E-score. CGACCGTC showed a binding signal of -0.0882 E-score. With TCTTCGCA the binding signal was 0.109 E-score. For AAGGACGC, the binding signal was -0.13 E-score. With AACTGAAT the binding signal was -0.0112 E-score. In the case of CACGGTGA, the binding signal is reported as -0.12 E-score. With AGCCCACA the binding signal was -0.207 E-score. Sequence AACTGTTA has a binding signal of 0.201 E-score. For ACGTTAAG, the binding signal was -0.00861 E-score. AGCCGCCA showed a binding signal of -0.336 E-score. Sequence AATCTAGA has a binding signal of 0.331 E-score. Work on GATGGAGC yielded a binding signal of -0.0473 E-score. GGATCAAA was tested, and the binding signal was -0.144 E-score. With CCAATTGA the binding signal was -0.109 E-score. Sequence AAAAGTGA has a binding signal of -0.0623 E-score. ACATTAGG was tested, and the binding signal was 0.0638 E-score. AGACCGGA gave a binding signal of -0.00161 E-score. GCCATGGA gave a binding signal of 0.146 E-score. For GACTCTAC, the binding signal was -0.0759 E-score. CCCTACGA showed a binding signal of -0.00886 E-score. For CAATTATG, the binding signal was 0.142 E-score. Work on GATTGCTA yielded a binding signal of 0.18 E-score. Work on AACCTGGC yielded a binding signal of -0.0685 E-score. For ATTTTCGG, the binding signal was 0.221 E-score. In the case of GTAAGTAA, the binding signal is reported as 0.238 E-score. GTAGGGAC showed a binding signal of -0.135 E-score. Sequence ACCGCTTC has a binding signal of -0.292 E-score. Work on GTCTGTAA yielded a binding signal of 0.206 E-score. TTACGAAA was tested, and the binding signal was 0.14 E-score. CACTCGAC showed a binding signal of -0.229 E-score. ATAGCTTC gave a binding signal of 0.0377 E-score. With AACCGCCA the binding signal was -0.203 E-score. For CTCAAGGA, the binding signal was -0.143 E-score. AAGTCGTG showed a binding signal of -0.00769 E-score. AGGACCTC was tested, and the binding signal was -0.146 E-score. ATTGATAA showed a binding signal of 0.243 E-score. For CTATGTCC, the binding signal was 0.0302 E-score. Sequence GGGTTGAA has a binding signal of -0.205 E-score. With GCCTGACA the binding signal was -0.176 E-score. CCCCCCAG showed a binding signal of -0.245 E-score. With GAAGAAAC the binding signal was 0.108 E-score. In the case of GAAGGATA, the binding signal is reported as 0.0411 E-score. Sequence GCGGAGCA has a binding signal of -0.296 E-score. For CTTCCATC, the binding signal was -0.103 E-score. CTATCGGC gave a binding signal of 0.0347 E-score. In the case of GTAATCCA, the binding signal is reported as -0.0655 E-score. CCTCGTCC gave a binding signal of -0.365 E-score. With CTGATCAG the binding signal was 0.0208 E-score. In the case of AGCGCCCA, the binding signal is reported as -0.323 E-score. GCTATACC showed a binding signal of -0.0163 E-score. AGACGCCT was tested, and the binding signal was -0.184 E-score. With ACATATTG the binding signal was 0.232 E-score. GAGTCAAC gave a binding signal of -0.217 E-score. For GACCCTCA, the binding signal was -0.264 E-score. For CCGATATA, the binding signal was 0.274 E-score. With ACCATGAG the binding signal was -0.0581 E-score. AACCAGCT was tested, and the binding signal was -0.195 E-score. Sequence ACGATACG has a binding signal of 0.0899 E-score. Work on TACCGCCA yielded a binding signal of 0.0197 E-score. Work on AGGTTCAG yielded a binding signal of 0.0249 E-score. Sequence CGCAACAC has a binding signal of -0.0189 E-score. For ACGCTCTC, the binding signal was -0.3 E-score. Work on CTGGCCGA yielded a binding signal of 0.0508 E-score. For GCCGCGGA, the binding signal was -0.187 E-score. Sequence CGTGCAAA has a binding signal of 0.0567 E-score. With GTTATGGA the binding signal was -0.0343 E-score. In the case of ACATGGCT, the binding signal is reported as -0.0476 E-score. Work on GGCTGCCC yielded a binding signal of -0.232 E-score. With CGTACCTC the binding signal was -0.179 E-score. AGATTCCT gave a binding signal of 0.111 E-score. With ATGGAGAG the binding signal was -0.115 E-score. TGAGCAAA showed a binding signal of 0.00907 E-score. GGAAGGCC showed a binding signal of -0.309 E-score. For CGGGAAGA, the binding signal was -0.123 E-score. With CTTAATGC the binding signal was 0.0481 E-score. With ATTCCTTG the binding signal was 0.0225 E-score. Work on ACCGGGCC yielded a binding signal of -0.315 E-score. With CAGCCTCC the binding signal was -0.274 E-score. GAAGATTA gave a binding signal of 0.122 E-score. In the case of AATATTTC, the binding signal is reported as 0.274 E-score. ATTTTTTC was tested, and the binding signal was -0.0201 E-score. Sequence GGCACGGA has a binding signal of -0.0988 E-score. In the case of CACGAATC, the binding signal is reported as 0.064 E-score. Sequence ATGTCACG has a binding signal of -0.112 E-score. For CTAATGCA, the binding signal was 0.0617 E-score. GCGCGTCC gave a binding signal of -0.291 E-score. GAGTTACA was tested, and the binding signal was 0.0993 E-score. With GTCTCACA the binding signal was -0.294 E-score. TCCCAAGA gave a binding signal of -0.129 E-score. In the case of CCTAGGCG, the binding signal is reported as -0.291 E-score. For ACCCCTGC, the binding signal was -0.242 E-score. For GCCTCTTA, the binding signal was -0.135 E-score. In the case of AAGATCGG, the binding signal is reported as -0.0288 E-score. CATTTGCG showed a binding signal of -0.0244 E-score. AAGACAGT was tested, and the binding signal was -0.131 E-score. GTGCGAAC showed a binding signal of -0.184 E-score. ATACTAGC gave a binding signal of 0.288 E-score. Sequence AGCGACTC has a binding signal of 0.0123 E-score. ACAATGGT was tested, and the binding signal was 0.0419 E-score. With TGCAGTAA the binding signal was 0.128 E-score. AATCGTGT gave a binding signal of 0.175 E-score. TACGAGAA gave a binding signal of 0.0502 E-score. Sequence ACCCGAGA has a binding signal of -0.114 E-score. In the case of ACACTGAG, the binding signal is reported as -0.271 E-score. GTGGGGCA showed a binding signal of -0.288 E-score. Work on AATGCTGG yielded a binding signal of -0.177 E-score. In the case of ATAGCCCC, the binding signal is reported as -0.135 E-score. GTCGTTCA showed a binding signal of -0.116 E-score. Work on GCCTCACC yielded a binding signal of -0.172 E-score. With GCTGGTAA the binding signal was 0.079 E-score. Work on AAACATGC yielded a binding signal of 0.0654 E-score. CCTTAACC gave a binding signal of -0.0281 E-score. For AATGTAGT, the binding signal was 0.291 E-score. Work on AGCATCGA yielded a binding signal of -0.0444 E-score. Sequence AGCTCGTG has a binding signal of -0.241 E-score. AGTATACC showed a binding signal of 0.0736 E-score. In the case of AGCGGCAC, the binding signal is reported as -0.177 E-score. In the case of CGAGTAGA, the binding signal is reported as 0.088 E-score. Sequence GCAGCAGC has a binding signal of -0.113 E-score. Sequence GAGGTACC has a binding signal of 0.0341 E-score. With ATCCACAT the binding signal was 0.133 E-score. In the case of ATATCGAG, the binding signal is reported as 0.151 E-score. CCAGTGCG showed a binding signal of -0.209 E-score. With AAGGGTAC the binding signal was -0.0501 E-score. Work on ACCTAGTA yielded a binding signal of 0.233 E-score. Work on CCAACGGA yielded a binding signal of -0.0787 E-score. In the case of GGGGCACA, the binding signal is reported as -0.127 E-score. With CGCAGCGA the binding signal was -0.0248 E-score. For ATTCTGGA, the binding signal was 0.0571 E-score. In the case of AAAAACTA, the binding signal is reported as 0.426 E-score. With CTCATGAA the binding signal was -0.000469 E-score. ACTCATAT gave a binding signal of 0.101 E-score. In the case of ATTGGCAG, the binding signal is reported as -0.0782 E-score. GTGTCCTA showed a binding signal of 0.0387 E-score. GAGCGTGC gave a binding signal of -0.274 E-score. AGAGCGTA showed a binding signal of 0.0391 E-score. Work on CGTAATTC yielded a binding signal of 0.175 E-score. Sequence ATGGGCCG has a binding signal of -0.214 E-score. AGCCATTC was tested, and the binding signal was -0.0428 E-score. AGCGACCT showed a binding signal of 0.06 E-score. Sequence GAGTGCAC has a binding signal of -0.109 E-score. Work on CGATGCCC yielded a binding signal of -0.156 E-score. With AACATCTT the binding signal was 0.0861 E-score. For CTCGCATC, the binding signal was -0.126 E-score. Sequence AAGCCGAC has a binding signal of 0.0531 E-score. For ACTTAAAT, the binding signal was 0.175 E-score. Work on ATTCAAAA yielded a binding signal of 0.126 E-score. In the case of GATAGGAC, the binding signal is reported as -0.0509 E-score. In the case of TGCTTCAA, the binding signal is reported as -0.233 E-score.
